The text below walks through data of the supplement of paper PMC3334620.

Whole data set: some 33,000 sequences, median “E-score (-0.5 to 0.5)” near -0.011, cut for the highest 2% near 0.28. The list shows a part of the results.

This assay has as its target T1, Gcr1 (UniProt P07261).
T1 sequence: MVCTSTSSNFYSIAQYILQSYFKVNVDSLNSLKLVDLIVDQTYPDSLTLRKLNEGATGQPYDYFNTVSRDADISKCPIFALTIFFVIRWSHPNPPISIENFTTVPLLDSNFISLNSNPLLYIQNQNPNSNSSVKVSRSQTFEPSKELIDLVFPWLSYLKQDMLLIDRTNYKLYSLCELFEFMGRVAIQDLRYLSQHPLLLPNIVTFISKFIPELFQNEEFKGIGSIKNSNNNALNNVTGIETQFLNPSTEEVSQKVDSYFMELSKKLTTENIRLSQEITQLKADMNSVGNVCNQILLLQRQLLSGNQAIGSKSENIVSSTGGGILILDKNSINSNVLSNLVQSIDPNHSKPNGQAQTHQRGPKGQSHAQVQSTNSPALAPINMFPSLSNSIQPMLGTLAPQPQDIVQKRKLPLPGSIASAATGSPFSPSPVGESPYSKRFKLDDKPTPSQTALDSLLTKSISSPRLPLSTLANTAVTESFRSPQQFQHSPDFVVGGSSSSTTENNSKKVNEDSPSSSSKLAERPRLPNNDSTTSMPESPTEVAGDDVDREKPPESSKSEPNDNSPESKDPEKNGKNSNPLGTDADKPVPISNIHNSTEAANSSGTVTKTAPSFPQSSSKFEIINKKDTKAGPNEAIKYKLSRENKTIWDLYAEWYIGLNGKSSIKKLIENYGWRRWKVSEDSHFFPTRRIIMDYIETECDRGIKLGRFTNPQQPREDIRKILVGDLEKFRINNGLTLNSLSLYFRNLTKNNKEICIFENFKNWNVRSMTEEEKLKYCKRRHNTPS
Kind of assay: PBM E-score (8-mer binding enrichment) (E-score (-0.5 to 0.5)); higher = stronger / more preferred TF binding; most listed sequences are background and not binding sites. The note with it: protein concentration: 100 nM; construct: GST-full length. Put shortly:
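Masliner-normalised scans of fluorescent anti-GST signal were the basis for scoring. That signal came from GST-tagged yeast transcription factors applied at about 100-200 nM to double-stranded universal all-10-mer Agilent arrays on fresh or once-stripped slides. Each ungapped eight-base word, pooled with its reverse complement, received an E-score from the Universal PBM Analysis Suite.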
Consider CTGTTGCA, for which the “PBM E-score” value is -0.0353.
To AGACTGGC belongs 0.00234; to AAAACGCC, -0.157; to GAGGGCCA, -0.137.
Take AGGCATCG: the “PBM E-score” value is 0.0175.
On to AGGGACGC, for which the “PBM E-score” value is 0.139.
In the case of ACCTGCGC, the “PBM E-score” value was determined as 0.0153.
For GATTCTCA, the “PBM E-score” value was determined as 0.0363.
Turning to AGAACGTC, the “PBM E-score” value is -0.123.
In the case of CCAAGTAC, the “PBM E-score” value amounted to 0.0611.
Turning to AACGAGAT, the “PBM E-score” value came out at 0.031.
As for AGGCCCTC, the “PBM E-score” value was -0.265.
Then ACGTTGGA, with -0.087.
AGTCCCGC: the “PBM E-score” value was -0.0582.
In the case of GTACTGGA, the “PBM E-score” value was determined as 0.235.
In the case of CAGCCTTC, the “PBM E-score” value is -0.085.
As to AAGCTGTC, the “PBM E-score” value is -0.142.
As to GAGTCTGC, the “PBM E-score” value was 0.00367.
Take GAACGTAA: the “PBM E-score” value is -0.06.
Regarding CCCTAACA, the “PBM E-score” value stood at 0.101.
To CCTCTTTA belongs 0.119; to GTAGTGTA, -0.0351; to ATGGACAT, 0.022.
On to AACCCATC, for which the “PBM E-score” value was -0.119.
As for CCCGTAAG, the “PBM E-score” value was found to be 0.113.
Take ACCATTTC: the “PBM E-score” value came out at 0.0711.
As for CGTACAGC, the “PBM E-score” value is -0.12.
As for CAGATCGG, the “PBM E-score” value amounted to 0.129.
Regarding GCGAGCCA, the “PBM E-score” value was -0.204.
Regarding ACTCTGCA, the “PBM E-score” value is -0.0157.
Regarding GCTAAAGC, the “PBM E-score” value was -0.217.
To CCTAGATC belongs -0.0364.
For ATTATTGG, the “PBM E-score” value is 0.0188.
With GGCAAGAC, the “PBM E-score” value was -0.199.
CGCCACCC: the “PBM E-score” value is -0.0995.
Turning to TAAGTGAA, the “PBM E-score” value is -0.0606.
To GACCCAAA belongs 0.169; to ATCACCTG, -0.0857.
Then CCAATTGA, with 0.0612; and CAAAATAC, with 0.0518; and AGCGATAT, with 0.0305.
Consider GCCCTCCC, for which the “PBM E-score” value was determined as 0.0504.
Take ATGCACTA: the “PBM E-score” value was -0.109.
Consider GTTATTCA, for which the “PBM E-score” value was determined as 0.175.
To CAGTGTTA belongs -0.0217.
As to ATAATGTA, the “PBM E-score” value is 0.0597.
As to GCGTGGCA, the “PBM E-score” value was -0.183.
Consider AACAGGCG, for which the “PBM E-score” value was -0.0919.
For the sequence CCGCTTGA, the “PBM E-score” value was -0.137.
Regarding CAGTCATA, the “PBM E-score” value is -0.11.
As to TAGGGCAA, the “PBM E-score” value is -0.12.
ACCCGACC: the “PBM E-score” value was -0.0716.
Take GATCGACC: the “PBM E-score” value is -0.177.
As for CATGGACA, the “PBM E-score” value was -0.175.
On to CAGCTATG, for which the “PBM E-score” value is -0.265.
As for AAGGGCAA, the “PBM E-score” value is -0.142.
For the sequence CATTCAGC, the “PBM E-score” value was 0.0123.
Then ATACCCCG, with -0.107; and GATCAGAA, with -0.0468.
For the sequence AGTGACAG, the “PBM E-score” value is -0.0775.
Then CTACAAAG, with -0.0715.
To CTACCCAA belongs 0.0568.
With GTCGCGCA, the “PBM E-score” value is 0.0621.
As for CATGTCCA, the “PBM E-score” value was -0.0388.
With AGTTTCTC, the “PBM E-score” value amounted to 0.00745.
As for AAATGTAA, the “PBM E-score” value was 0.0136.
Take GGAAACCA: the “PBM E-score” value was found to be 0.136.
With CAATCAAC, the “PBM E-score” value was -0.0776.
Then ACTTGTCG, with 0.0982; and GGCCTGAA, with -0.145; and ACTCTACG, with -0.153.
In the case of ACAGCGTA, the “PBM E-score” value was -0.121.
Then GAAGGACA, with -0.0429; and AATCTGGC, with 0.0826.
Take GATGCTCA: the “PBM E-score” value was 0.115.
Regarding ATTCTGCG, the “PBM E-score” value stood at 0.0393.
For AAGTCGCG, the “PBM E-score” value is 0.00184.
With AACGAGCG, the “PBM E-score” value was -0.0771.
Turning to ACAGTAAT, the “PBM E-score” value was -0.139.
GCTCGACC: the “PBM E-score” value came out at 0.00687.
Regarding CGGACTTC, the “PBM E-score” value worked out at 0.116.
Then TAAAATAA, with 0.163; and CTACCGGA, with 0.0625.
As for TCGGTTCA, the “PBM E-score” value is -0.0382.
Consider CACCTATC, for which the “PBM E-score” value came out at 0.0711.
Turning to CACCTGAA, the “PBM E-score” value was 0.143.
